From publication PMC4536226
No constants are given. Whether binding was seen depends on the method and setting. In cells and extracts the contact can be indirect. Some binding calls cover weakened binding; strength is not graded here. Tags and fused reporters may be left off the sequences shown.

T1: Fu^K33A (Drosophila) (UniProt P23647)
T1 sequence: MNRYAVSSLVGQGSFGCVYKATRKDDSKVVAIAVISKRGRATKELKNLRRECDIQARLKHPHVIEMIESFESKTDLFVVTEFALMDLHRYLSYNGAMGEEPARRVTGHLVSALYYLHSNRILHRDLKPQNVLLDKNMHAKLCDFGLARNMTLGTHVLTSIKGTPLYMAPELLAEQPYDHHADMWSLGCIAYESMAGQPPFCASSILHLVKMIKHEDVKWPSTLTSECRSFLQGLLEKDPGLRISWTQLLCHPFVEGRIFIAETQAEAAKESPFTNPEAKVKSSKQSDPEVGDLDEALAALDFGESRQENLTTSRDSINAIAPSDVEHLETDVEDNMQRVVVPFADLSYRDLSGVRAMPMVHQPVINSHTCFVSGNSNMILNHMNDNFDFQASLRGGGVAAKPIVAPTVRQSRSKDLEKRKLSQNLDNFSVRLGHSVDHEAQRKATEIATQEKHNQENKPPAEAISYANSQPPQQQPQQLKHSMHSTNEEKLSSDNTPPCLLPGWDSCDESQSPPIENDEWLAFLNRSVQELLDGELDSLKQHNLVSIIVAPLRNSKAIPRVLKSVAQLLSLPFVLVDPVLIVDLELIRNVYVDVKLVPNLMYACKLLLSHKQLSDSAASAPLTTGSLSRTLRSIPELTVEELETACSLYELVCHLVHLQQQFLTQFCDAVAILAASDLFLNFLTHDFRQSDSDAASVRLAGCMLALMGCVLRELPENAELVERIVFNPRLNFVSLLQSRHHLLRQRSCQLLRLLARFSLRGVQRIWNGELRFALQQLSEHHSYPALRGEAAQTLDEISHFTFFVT

T2: N-terminally HA-tagged full-length Fu (HA-Fu) (Drosophila) (UniProt P23647)
T2 sequence: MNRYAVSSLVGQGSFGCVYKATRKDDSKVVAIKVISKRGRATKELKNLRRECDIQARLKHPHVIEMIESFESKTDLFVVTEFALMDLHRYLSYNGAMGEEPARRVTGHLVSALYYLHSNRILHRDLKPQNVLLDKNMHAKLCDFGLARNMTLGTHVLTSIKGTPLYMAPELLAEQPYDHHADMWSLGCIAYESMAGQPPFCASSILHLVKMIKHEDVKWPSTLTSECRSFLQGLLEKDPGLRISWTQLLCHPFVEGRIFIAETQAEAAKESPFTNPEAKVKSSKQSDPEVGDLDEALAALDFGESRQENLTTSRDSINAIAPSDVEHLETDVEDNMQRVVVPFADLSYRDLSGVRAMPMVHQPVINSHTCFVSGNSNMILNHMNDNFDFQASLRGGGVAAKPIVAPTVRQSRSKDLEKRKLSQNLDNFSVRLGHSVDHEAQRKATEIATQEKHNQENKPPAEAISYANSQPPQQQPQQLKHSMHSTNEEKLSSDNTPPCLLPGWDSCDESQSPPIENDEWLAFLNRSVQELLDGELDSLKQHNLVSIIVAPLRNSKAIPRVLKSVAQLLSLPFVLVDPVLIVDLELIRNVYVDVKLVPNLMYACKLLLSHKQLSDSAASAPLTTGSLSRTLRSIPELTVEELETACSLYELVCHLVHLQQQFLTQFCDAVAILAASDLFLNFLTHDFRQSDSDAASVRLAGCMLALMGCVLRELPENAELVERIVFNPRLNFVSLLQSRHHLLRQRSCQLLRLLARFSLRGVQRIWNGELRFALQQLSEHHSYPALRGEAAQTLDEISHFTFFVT

T3: Fu361-805 (Drosophila) (UniProt P23647)
T3 sequence: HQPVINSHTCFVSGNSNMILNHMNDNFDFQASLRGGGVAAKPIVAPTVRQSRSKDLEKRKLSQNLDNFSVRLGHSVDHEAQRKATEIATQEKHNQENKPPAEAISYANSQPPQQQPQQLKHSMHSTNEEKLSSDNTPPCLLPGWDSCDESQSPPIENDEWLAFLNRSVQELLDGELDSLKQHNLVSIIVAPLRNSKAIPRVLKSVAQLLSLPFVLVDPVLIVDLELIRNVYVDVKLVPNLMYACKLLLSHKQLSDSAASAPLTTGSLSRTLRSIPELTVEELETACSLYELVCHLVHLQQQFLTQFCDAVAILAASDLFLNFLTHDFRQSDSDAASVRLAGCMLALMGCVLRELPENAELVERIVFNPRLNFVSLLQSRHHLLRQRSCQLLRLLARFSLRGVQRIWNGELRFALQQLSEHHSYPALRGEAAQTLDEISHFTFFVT

T4: Fu331-805 (Drosophila) (UniProt P23647)
T4 sequence: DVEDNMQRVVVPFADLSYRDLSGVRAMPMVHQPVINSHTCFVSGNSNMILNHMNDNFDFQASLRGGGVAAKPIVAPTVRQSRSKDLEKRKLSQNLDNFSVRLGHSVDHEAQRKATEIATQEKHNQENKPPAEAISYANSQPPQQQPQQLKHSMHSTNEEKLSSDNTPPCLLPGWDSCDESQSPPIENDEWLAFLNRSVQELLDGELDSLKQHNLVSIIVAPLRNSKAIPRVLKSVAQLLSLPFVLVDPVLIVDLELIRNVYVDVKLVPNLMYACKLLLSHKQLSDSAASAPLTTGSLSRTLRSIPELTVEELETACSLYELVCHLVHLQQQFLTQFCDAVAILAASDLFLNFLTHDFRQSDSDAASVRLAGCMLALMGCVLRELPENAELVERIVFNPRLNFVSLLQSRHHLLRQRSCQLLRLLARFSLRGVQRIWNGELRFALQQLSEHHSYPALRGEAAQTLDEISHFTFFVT


Legend:
Assay in all cases: co-IP; S2R+ cells co-transfected with HA-Fu variants, V5-Su(fu) and Myc-Cos2, and with Fu 3'UTR dsRNA to knock down endogenous Fu; IP with anti-HA matrix; with or without HhN stimulation (Fig 2C); lysis in PBS with 1.0% Triton X-100
Fu^K33A (Drosophila) = molecular target: T1, Fu^K33A (Drosophila)
[1] = molecular target: T2, N-terminally HA-tagged full-length Fu (HA-Fu) (Drosophila)
Fu361-805 (Drosophila) = molecular target: T3, Fu361-805 (Drosophila)
Fu331-805 (Drosophila) = molecular target: T4, Fu331-805 (Drosophila)

Row | binding (Fu^K33A (Drosophila)) | binding [1] | binding (Fu361-805 (Drosophila)) | binding (Fu331-805 (Drosophila)) | Binder
1 | binds | binds weakly | binds weakly | binds weakly | V5-tagged Suppressor of fused (V5-Su(fu)) (protein, UniProt Q9VG38 1-468) MAEANLDKKPEVKPPPGLKAIIDHLGQVYPNQPNPLQVTTLLKYWLGGQDPLDYISMYNYPGDVDRNVPPHWHYISFGLSDLHGDERVHLREEGVTRSGMGFELTFRLAKTEIELKQQIENPEKPQRPPTWPANLLQAIGRYCFQTGNGLCFGDNIPWRKSLDGSTTSKLQNLLVAQDPQLGCIDTPTGTVDFCQIVGVFDDELEQASRWNGRGVLNFLRQDMQTGGDWLVTNMDRQMSVFELFPETLLNLQDDLEKQGSDLAGVNADFTFRELKPTKEVKEEVDFQALSEKCANDENNRQLTDTQMKREEPSFPQSMSMSSNSLHKSCPLDFQAQAPNCISLDGIEITLAPGVAKYLLLAIKDRIRHGRHFTFKAQHLALTLVAESVTGSAVTVNEPYGVLGYWIQVLIPDELVPRLMEDFRSAGLDEKCEPKERLELEWPDKNLKLIIDQPEPVLPMSLDAAPLKM
2 | binds | binds | binds | binds | Myc-tagged Cos2 (Myc-Cos2) (protein, UniProt O16844 1-1201) MEIPIQVAVRIFPHRELKDLLRSFGPTEPKKDAQAVDEGADSKDSEAQVPAAEKDNPSISETDPNGNAEQDSAADSKTIPDANGNDSGQKDYPDSAYCVQAIPISASALGLPSALPGGDPMDSIAAGLIQVGPHTVPVTHALPSSSSQEQVYHQTVFPLITLFLEGFDASVVTYGQRGQGKSYTLYGNVQDPTLTDSTEGVVQLCVRDIFSHISLHPERTYAINVGFVEICGGDVCDLLGMGNIHCTNVDAVFHWLQVGLSARQSLPAHTLFTLTLEQQWVSKEGLLQHRLSTASFSDLCGTERCGDQPPGRPLDAGLCMLEQVISTLTDPGLMYGVNGNIPYGQTTLTTLLKDSFGGRAQTLVILCVSPLEEHLPETLGNLQFAFKVQCVRNFVIMNTYSDDNTMIVQPAEPVPESNSSAGPLSQAGPGDNFGLQFAASQWSKLVTNAEGLFSKLIDSKLITEVEKEQIEEWLFLKQECEECLSSTEAMRQQKQLVPILEAEEPEDVNSEAANSESPNSDNENDTDNESHRPDLDDKIESLMEEFRDKTDALILEKHAEYLSKHPKAVMQSQDREIEAQPPEENGDDRKVSIGSRRRSVQPGASLSTAELAMLNRVASQQPPPPIDPESVVDPLESSSGEGIRQAALAAAAATAPIEQLQKKLRKLVAEIEGKQRQLREIEETIQVKQNIIAELVKNSDTRSHAKQRFHKKRAKLEAECDKAKKQLGKALVQGRDQSEIERWTTIIGHLERRLEDLSSMKHIAGESGQKVKKLQQSVGESRKQADDLQKKLRKECKLRCQMEAELAKLRESRETGKELVKAQGSPEQQGRQLKAVQARITHLNHILREKSDNLEEQPGPEQQETLRHEIRNLRGTRDLLLEERCHLDRKLKRDKVLTQKEERKLLECDEAIEAIDAAIEFKNEMITGHRSIDTSDRIQREKGEQMLMARLNRLSTEEMRTLLYKYFTKVIDLRDSSRKLELQLVQLERERDAWEWKERVLSNAVRQARLEGERNAVLLQRQHEMKLTLMLRHMAEETSASSASYGERALAPACVAPPVQASSDFDYDHFYKGGGNPSKALIKAPKPMPTGSALDKYKDKEQRSGRNIFAKFHVLTRYASAAAAGSSGSTAEESTALIESTTTATATTTSTTTTGAVGKVKDKALVSFRPEQLKRLMPAPTATKVTRQKNKIIIQDASRRN
